# Source: PMC12820563
# Some of the results follow. The list includes weakly bound sequences.
# Target: T1, MBP-FoxP3dN (UniProt Q99JB6)
# T1 sequence: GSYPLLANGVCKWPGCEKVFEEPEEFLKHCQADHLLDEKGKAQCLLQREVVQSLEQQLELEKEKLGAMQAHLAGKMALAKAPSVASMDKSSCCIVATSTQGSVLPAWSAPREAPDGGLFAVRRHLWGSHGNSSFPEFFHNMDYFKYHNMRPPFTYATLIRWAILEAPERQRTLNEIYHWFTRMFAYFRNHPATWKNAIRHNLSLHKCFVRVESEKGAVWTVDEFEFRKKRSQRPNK
# Assay: PD-seq (MBP pull-down with sequencing)
# Conditions: 20 mM Tris-HCl pH 7.5, 100 mM NaCl, 1.5 mM MgCl2, 0.4 uM protein, 0.1 uM dsDNA library, 30 min, room temperature, amylose pull-down; high values mean tight binding; double strand, one strand shown
row,Sequence,binding signal (RPM ratio (pull-down/input))
1,GATGATTGTTCTCCCAGCTGATGAATTGTGTGATTCGAGTAAACAAATTTTCCTAATCTTTCTGTTCAAGCGCCATCTAC,5.27
2,GATGATTGTTCTCCCAGCTGATGAATTAGTAGCCTCGAGTAAACAAATTTTCCTAATCTTTCTGTTCAAGCGCCATCTAC,1.23
3,GATGATTGTTCTCCCAGCTGATGAATTAAGAAGGTCGAGTAAACAAATTTTCCTAATCTTTCTGTTCAAGCGCCATCTAC,0.191
4,GATGATTGTTCTCCCAGCTGATGAATTCTTTCCCTCGAGTAAACAAATTTTCCTAATCTTTCTGTTCAAGCGCCATCTAC,0.206
5,GATGATTGTTCTCCCAGCTGATGAATTACAAAGCTCGAGTAAACAAATTTTCCTAATCTTTCTGTTCAAGCGCCATCTAC,0.413
6,GATGATTGTTCTCCCAGCTGATGAATTCGTTCCCTCGAGTAAACAAATTTTCCTAATCTTTCTGTTCAAGCGCCATCTAC,0.393
7,GATGATTGTTCTCCCAGCTGATGAATTGCTGTTCTCGAGTAAACAAATTTTCCTAATCTTTCTGTTCAAGCGCCATCTAC,1.54
8,GATGATTGTTCTCCCAGCTGATGAATTTTGTCCATCGAGTAAACAAATTTTCCTAATCTTTCTGTTCAAGCGCCATCTAC,1.43
9,GATGATTGTTCTCCCAGCTGATGAATTTCCCAAATCGAGTAAACAAATTTTCCTAATCTTTCTGTTCAAGCGCCATCTAC,0.2
10,GATGATTGTTCTCCCAGCTGATGAATTAGGAGCCTCGAGTAAACAAATTTTCCTAATCTTTCTGTTCAAGCGCCATCTAC,0.47
11,GATGATTGTTCTCCCAGCTGATGAATTAGCCTTCTCGAGTAAACAAATTTTCCTAATCTTTCTGTTCAAGCGCCATCTAC,1.15
12,GATGATTGTTCTCCCAGCTGATGAATTCGGTTATTCGAGTAAACAAATTTTCCTAATCTTTCTGTTCAAGCGCCATCTAC,2.41
13,GATGATTGTTCTCCCAGCTGATGAATTTACGGTTTCGAGTAAACAAATTTTCCTAATCTTTCTGTTCAAGCGCCATCTAC,0.786
14,GATGATTGTTCTCCCAGCTGATGAATTGGCCCTATCGAGTAAACAAATTTTCCTAATCTTTCTGTTCAAGCGCCATCTAC,0.332
15,GATGATTGTTCTCCCAGCTGATGAATTTAATAGTTCGAGTAAACAAATTTTCCTAATCTTTCTGTTCAAGCGCCATCTAC,3.21
16,GATGATTGTTCTCCCAGCTGATGAATTATCTATTTCGAGTAAACAAATTTTCCTAATCTTTCTGTTCAAGCGCCATCTAC,0.352
17,GATGATTGTTCTCCCAGCTGATGAATTGTGTCCCTCGAGTAAACAAATTTTCCTAATCTTTCTGTTCAAGCGCCATCTAC,2.1
18,GATGATTGTTCTCCCAGCTGATGAATTCGTTACCTCGAGTAAACAAATTTTCCTAATCTTTCTGTTCAAGCGCCATCTAC,0.862
19,GATGATTGTTCTCCCAGCTGATGAATTCCCCCGTTCGAGTAAACAAATTTTCCTAATCTTTCTGTTCAAGCGCCATCTAC,0.206
20,GATGATTGTTCTCCCAGCTGATGAATTAGAGACGTCGAGTAAACAAATTTTCCTAATCTTTCTGTTCAAGCGCCATCTAC,0.265
21,GATGATTGTTCTCCCAGCTGATGAATTATCGTAGTCGAGTAAACAAATTTTCCTAATCTTTCTGTTCAAGCGCCATCTAC,0.377

row,Sequence,binding signal (RPM ratio (pull-down/input))
1,GATGATTGTTCTCCCAGCTGATGAATTTCAGACATCGAGTAAACAAATTTTCCTAATCTTTCTGTTCAAGCGCCATCTAC,0.31
2,GATGATTGTTCTCCCAGCTGATGAATTCCCCCGCTCGAGTAAACAAATTTTCCTAATCTTTCTGTTCAAGCGCCATCTAC,0.214
3,GATGATTGTTCTCCCAGCTGATGAATTCTGACACTCGAGTAAACAAATTTTCCTAATCTTTCTGTTCAAGCGCCATCTAC,2.3
4,GATGATTGTTCTCCCAGCTGATGAATTAAAGACCTCGAGTAAACAAATTTTCCTAATCTTTCTGTTCAAGCGCCATCTAC,0.237
5,GATGATTGTTCTCCCAGCTGATGAATTGTAATGCTCGAGTAAACAAATTTTCCTAATCTTTCTGTTCAAGCGCCATCTAC,1.07
6,GATGATTGTTCTCCCAGCTGATGAATTCACGGCCTCGAGTAAACAAATTTTCCTAATCTTTCTGTTCAAGCGCCATCTAC,0.36
7,GATGATTGTTCTCCCAGCTGATGAATTTGTGTGTTCGAGTAAACAAATTTTCCTAATCTTTCTGTTCAAGCGCCATCTAC,5.99
8,GATGATTGTTCTCCCAGCTGATGAATTCTTACGATCGAGTAAACAAATTTTCCTAATCTTTCTGTTCAAGCGCCATCTAC,0.243
9,GATGATTGTTCTCCCAGCTGATGAATTGCGTGGTTCGAGTAAACAAATTTTCCTAATCTTTCTGTTCAAGCGCCATCTAC,1.86
10,GATGATTGTTCTCCCAGCTGATGAATTTTGCAGGTCGAGTAAACAAATTTTCCTAATCTTTCTGTTCAAGCGCCATCTAC,1.54
11,GATGATTGTTCTCCCAGCTGATGAATTAGGACGTTCGAGTAAACAAATTTTCCTAATCTTTCTGTTCAAGCGCCATCTAC,0.371
12,GATGATTGTTCTCCCAGCTGATGAATTTATCGAGTCGAGTAAACAAATTTTCCTAATCTTTCTGTTCAAGCGCCATCTAC,0.379
13,GATGATTGTTCTCCCAGCTGATGAATTGTGCAGATCGAGTAAACAAATTTTCCTAATCTTTCTGTTCAAGCGCCATCTAC,0.741
14,GATGATTGTTCTCCCAGCTGATGAATTTACACTGTCGAGTAAACAAATTTTCCTAATCTTTCTGTTCAAGCGCCATCTAC,0.576
15,GATGATTGTTCTCCCAGCTGATGAATTCATCGGTTCGAGTAAACAAATTTTCCTAATCTTTCTGTTCAAGCGCCATCTAC,0.455
16,GATGATTGTTCTCCCAGCTGATGAATTTGCTGTATCGAGTAAACAAATTTTCCTAATCTTTCTGTTCAAGCGCCATCTAC,4.72
17,GATGATTGTTCTCCCAGCTGATGAATTTGGCGGCTCGAGTAAACAAATTTTCCTAATCTTTCTGTTCAAGCGCCATCTAC,0.668
18,GATGATTGTTCTCCCAGCTGATGAATTCCGCCTCTCGAGTAAACAAATTTTCCTAATCTTTCTGTTCAAGCGCCATCTAC,6.3
19,GATGATTGTTCTCCCAGCTGATGAATTATTCGGTTCGAGTAAACAAATTTTCCTAATCTTTCTGTTCAAGCGCCATCTAC,0.328
20,GATGATTGTTCTCCCAGCTGATGAATTGTTCATATCGAGTAAACAAATTTTCCTAATCTTTCTGTTCAAGCGCCATCTAC,0.681
21,GATGATTGTTCTCCCAGCTGATGAATTAACTGGGTCGAGTAAACAAATTTTCCTAATCTTTCTGTTCAAGCGCCATCTAC,0.222

row,Sequence,binding signal (RPM ratio (pull-down/input))
1,GATGATTGTTCTCCCAGCTGATGAATTAACTCGCTCGAGTAAACAAATTTTCCTAATCTTTCTGTTCAAGCGCCATCTAC,0.264
2,GATGATTGTTCTCCCAGCTGATGAATTCTGTTAGTCGAGTAAACAAATTTTCCTAATCTTTCTGTTCAAGCGCCATCTAC,5.31
3,GATGATTGTTCTCCCAGCTGATGAATTACATGCGTCGAGTAAACAAATTTTCCTAATCTTTCTGTTCAAGCGCCATCTAC,1.08
4,GATGATTGTTCTCCCAGCTGATGAATTAAAGACTTCGAGTAAACAAATTTTCCTAATCTTTCTGTTCAAGCGCCATCTAC,0.372
5,GATGATTGTTCTCCCAGCTGATGAATTATCGCGGTCGAGTAAACAAATTTTCCTAATCTTTCTGTTCAAGCGCCATCTAC,0.34
6,GATGATTGTTCTCCCAGCTGATGAATTGCGTAAATCGAGTAAACAAATTTTCCTAATCTTTCTGTTCAAGCGCCATCTAC,0.663
7,GATGATTGTTCTCCCAGCTGATGAATTAATTATTTCGAGTAAACAAATTTTCCTAATCTTTCTGTTCAAGCGCCATCTAC,2.17
8,GATGATTGTTCTCCCAGCTGATGAATTACTGTGCTCGAGTAAACAAATTTTCCTAATCTTTCTGTTCAAGCGCCATCTAC,0.454
9,GATGATTGTTCTCCCAGCTGATGAATTAGGCCAGTCGAGTAAACAAATTTTCCTAATCTTTCTGTTCAAGCGCCATCTAC,1.21
10,GATGATTGTTCTCCCAGCTGATGAATTCGGACCCTCGAGTAAACAAATTTTCCTAATCTTTCTGTTCAAGCGCCATCTAC,0.337
11,GATGATTGTTCTCCCAGCTGATGAATTTTGAGGGTCGAGTAAACAAATTTTCCTAATCTTTCTGTTCAAGCGCCATCTAC,0.383
12,GATGATTGTTCTCCCAGCTGATGAATTTCGGCGTTCGAGTAAACAAATTTTCCTAATCTTTCTGTTCAAGCGCCATCTAC,1.37
13,GATGATTGTTCTCCCAGCTGATGAATTCCGAATATCGAGTAAACAAATTTTCCTAATCTTTCTGTTCAAGCGCCATCTAC,0.493
14,GATGATTGTTCTCCCAGCTGATGAATTGAGTTCCTCGAGTAAACAAATTTTCCTAATCTTTCTGTTCAAGCGCCATCTAC,0.624
15,GATGATTGTTCTCCCAGCTGATGAATTTGTTGGATCGAGTAAACAAATTTTCCTAATCTTTCTGTTCAAGCGCCATCTAC,5.2
16,GATGATTGTTCTCCCAGCTGATGAATTTTGCTGCTCGAGTAAACAAATTTTCCTAATCTTTCTGTTCAAGCGCCATCTAC,1.31
17,GATGATTGTTCTCCCAGCTGATGAATTGGCTTCGTCGAGTAAACAAATTTTCCTAATCTTTCTGTTCAAGCGCCATCTAC,0.498
18,GATGATTGTTCTCCCAGCTGATGAATTCTGGGGGTCGAGTAAACAAATTTTCCTAATCTTTCTGTTCAAGCGCCATCTAC,0.456
19,GATGATTGTTCTCCCAGCTGATGAATTATTCGAATCGAGTAAACAAATTTTCCTAATCTTTCTGTTCAAGCGCCATCTAC,0.32
20,GATGATTGTTCTCCCAGCTGATGAATTCTGTCAATCGAGTAAACAAATTTTCCTAATCTTTCTGTTCAAGCGCCATCTAC,0.668
21,GATGATTGTTCTCCCAGCTGATGAATTTCTATCATCGAGTAAACAAATTTTCCTAATCTTTCTGTTCAAGCGCCATCTAC,0.435
